Source: the antibiotic and cytotoxicity screens of Wong et al. (2023)
The list shows a part of the results.

System: HSkMC (human skeletal muscle cells)
Assay: cytotoxicity call (relative viability < 0.9)
Details: 10 µM

| SMILES | cytotoxicity call |
| --- | --- |
| CC[C@@H](CO)NCCN[C@@H](CC)CO | inactive |
| CN(C)C(=O)CN1CCC[C@]2(CCN(S(=O)(=O)c3cn(C)cn3)C2)C1 | inactive |
| C[C@H](CO)N1C[C@H](C)[C@@H](CN(C)C(=O)Nc2ccc3c(c2)OCO3)Oc2ccc(NC(=O)Cn3cnnn3)cc2CC1=O | inactive |
| COCC(=O)N(C)C[C@H]1Oc2cc(C#CC(C)(C)O)ccc2S(=O)(=O)N([C@H](C)CO)C[C@H]1C | inactive |
| Cc1noc(C)c1NC(=O)Nc1cccc2c1O[C@@H](CN(C)Cc1ccc(C(=O)Nc3ccccc3N)cc1)[C@H](C)CN([C@H](C)CO)C2=O | inactive |
| C[C@H]1CN([C@@H](C)CO)C(=O)CCCn2nncc2CO[C@H]1CN(C)C(=O)Nc1cccc(Oc2ccccn2)c1 | inactive |
| CN(C)CCCNC(=O)[C@H]1[C@H](CO)[C@H]2Cn3c(ccc(-c4ccncc4)c3=O)[C@@H]1N2C(=O)C1CC1 | inactive |
| CCSc1nc(=O)c(C)n[nH]1 | inactive |
| CCCC#Cc1cnc2c(c1)C(=O)N([C@@H](C)CO)C[C@H](C)[C@H](CN(C)S(=O)(=O)c1cn(C)cn1)O2 | inactive |
| C[C@H](NC(=O)C[C@@H]1C=C[C@@H](NC(=O)CN2CCOCC2)[C@@H](CO)O1)c1ccccc1 | inactive |
| NC(=O)N1c2ccccc2C=Cc2ccccc21 | inactive |
| C[C@@H]1CCCCO[C@@H](CN(C)S(C)(=O)=O)[C@H](C)CN([C@H](C)CO)C(=O)c2cc(NS(=O)(=O)c3cn(C)cn3)ccc2O1 | inactive |
| COCC#Cc1ccc2c(c1)O[C@@H](CN(C)S(=O)(=O)c1ccc(F)cc1)[C@@H](C)CN([C@H](C)CO)S2(=O)=O | inactive |
